From PubChem BioAssay AID504333 (National Center for Advancing Translational Sciences (NCATS), 2011)
Where “and” joins values, the source holds several entries; their conditions need not be identical. Identical values can stand only once. Among all 360,000 compounds or so, about 16,000 (4.4%) were called active. The inconclusive results got no clear call from the source; some entries with a clear call stand among them for comparison. Calls follow the shape of the dose curve; as a rule, active = well fitted inhibition curve with a large enough effect; inconclusive = small, poorly fitted or top-dose-only effect; inactive = no such curve, though single readings can be large or run the other way. Potencies of inconclusive entries are doubtful fits and often do not repeat. The source holds several records for some structures; these can differ, active in one and inactive in another.

biological target: Bromodomain adjacent to zinc finger domain protein 2B (Homo sapiens) (UniProt Q9UIF8); test: qHTS Assay for Inhibitors of BAZ2B; details: AlphaScreen BAZ2B-H3K14Ac peptide displacement; series mostly up to 114 µM; also: nearly all actives have a fitted effect of over 60% in size
UniProt Q9UIF8, sequence (Q9UIF8 whole entry, looked up, the tested form may be a part): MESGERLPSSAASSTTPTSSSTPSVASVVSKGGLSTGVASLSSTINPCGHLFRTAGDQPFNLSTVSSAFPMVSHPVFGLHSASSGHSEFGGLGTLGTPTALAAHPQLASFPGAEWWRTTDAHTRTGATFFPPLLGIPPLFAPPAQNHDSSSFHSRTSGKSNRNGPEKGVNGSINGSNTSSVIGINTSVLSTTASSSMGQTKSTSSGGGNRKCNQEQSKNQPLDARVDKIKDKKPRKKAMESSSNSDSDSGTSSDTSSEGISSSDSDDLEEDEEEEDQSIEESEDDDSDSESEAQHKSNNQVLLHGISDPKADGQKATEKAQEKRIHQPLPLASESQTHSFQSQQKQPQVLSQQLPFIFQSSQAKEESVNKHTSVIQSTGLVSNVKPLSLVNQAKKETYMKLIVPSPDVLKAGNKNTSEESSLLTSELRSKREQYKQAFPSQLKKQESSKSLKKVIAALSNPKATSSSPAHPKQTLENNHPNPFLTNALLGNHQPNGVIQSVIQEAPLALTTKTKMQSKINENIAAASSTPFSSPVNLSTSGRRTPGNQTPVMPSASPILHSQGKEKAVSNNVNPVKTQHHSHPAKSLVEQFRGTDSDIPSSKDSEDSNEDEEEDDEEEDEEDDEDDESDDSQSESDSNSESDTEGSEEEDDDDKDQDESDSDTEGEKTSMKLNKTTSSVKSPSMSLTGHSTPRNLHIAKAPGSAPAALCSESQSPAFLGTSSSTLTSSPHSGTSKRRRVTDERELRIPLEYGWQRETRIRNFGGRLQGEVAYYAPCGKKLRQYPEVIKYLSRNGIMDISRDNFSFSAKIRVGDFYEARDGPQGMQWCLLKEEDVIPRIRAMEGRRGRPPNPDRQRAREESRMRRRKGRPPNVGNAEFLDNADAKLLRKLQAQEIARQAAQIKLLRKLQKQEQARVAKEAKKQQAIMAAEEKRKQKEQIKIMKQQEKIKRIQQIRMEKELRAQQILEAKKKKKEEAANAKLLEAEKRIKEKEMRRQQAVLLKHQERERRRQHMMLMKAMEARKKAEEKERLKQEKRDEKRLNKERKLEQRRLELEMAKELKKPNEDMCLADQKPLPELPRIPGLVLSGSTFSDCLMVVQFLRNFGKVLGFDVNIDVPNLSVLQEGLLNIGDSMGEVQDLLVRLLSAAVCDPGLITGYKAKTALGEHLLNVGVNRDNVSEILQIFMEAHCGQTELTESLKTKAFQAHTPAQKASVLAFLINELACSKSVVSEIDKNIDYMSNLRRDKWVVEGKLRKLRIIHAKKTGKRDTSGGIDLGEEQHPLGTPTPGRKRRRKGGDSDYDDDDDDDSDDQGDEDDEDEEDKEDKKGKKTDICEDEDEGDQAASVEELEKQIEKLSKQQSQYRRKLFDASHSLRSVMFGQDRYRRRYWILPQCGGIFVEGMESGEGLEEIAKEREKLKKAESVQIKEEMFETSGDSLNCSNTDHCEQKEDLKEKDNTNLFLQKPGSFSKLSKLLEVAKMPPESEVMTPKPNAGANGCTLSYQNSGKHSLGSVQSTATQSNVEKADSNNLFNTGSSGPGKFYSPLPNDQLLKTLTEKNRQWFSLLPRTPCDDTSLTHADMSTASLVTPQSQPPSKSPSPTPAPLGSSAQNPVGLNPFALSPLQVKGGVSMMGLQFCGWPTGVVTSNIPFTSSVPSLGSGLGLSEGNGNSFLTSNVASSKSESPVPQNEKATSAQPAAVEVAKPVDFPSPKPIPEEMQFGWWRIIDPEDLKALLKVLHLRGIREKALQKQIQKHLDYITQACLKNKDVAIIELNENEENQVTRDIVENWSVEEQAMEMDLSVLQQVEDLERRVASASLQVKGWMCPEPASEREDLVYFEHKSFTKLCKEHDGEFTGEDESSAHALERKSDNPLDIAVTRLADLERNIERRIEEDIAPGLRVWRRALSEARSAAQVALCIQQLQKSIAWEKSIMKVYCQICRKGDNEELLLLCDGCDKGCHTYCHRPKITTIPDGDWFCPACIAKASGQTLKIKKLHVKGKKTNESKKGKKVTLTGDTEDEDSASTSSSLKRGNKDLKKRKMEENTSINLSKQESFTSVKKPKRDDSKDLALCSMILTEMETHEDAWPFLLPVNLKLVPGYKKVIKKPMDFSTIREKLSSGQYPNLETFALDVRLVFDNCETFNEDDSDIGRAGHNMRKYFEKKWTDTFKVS
Outline: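 Compounds, titrated to a top concentration of 110 uM, were incubated 30 min at room temperature with preformed BAZ2B/acetyl-K14 H3 peptide complex (50 nM each). Proximity signal was measured by AlphaScreen after 20 min with beads.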
Potency is read from the fitted curve at half-maximal effect; tags tell the direction and shape of the fitted curve.

| SMILES | Potency |
| --- | --- |
| COc1cccc(/C=C/C(=O)Nc2ccc3nc(N4CCN(C)CC4)cc(C)c3c2)c1OC | inconclusive: 12.6 µM [inhibitor, full curve, poor fit] |
| O=C(c1ccco1)N1C2C=CC(C2)C1(C(F)(F)F)C(F)(F)F (stereo unspecified) | inconclusive: 100 µM [inhibitor, single point] |
| O=C(C1=C(O)C(=O)N(CCN2CCOCC2)C1c1cccnc1)c1cc2ccccc2o1 (stereo unspecified) | inconclusive: 89.1 µM [inhibitor, single point] |
| CCc1ccccc1N1CC(c2nc3ccccc3n2CCCCOc2ccccc2)CC1=O (stereo unspecified) | inconclusive: 50.1 µM [inhibitor, partial curve] |
| CCOc1ccc(N/C(C)=C/C(=O)c2ccc(C)o2)cc1 | inconclusive: 70.8 µM [inhibitor, single point] |
| COc1ccc(-c2cc(=O)oc3cc(OCC(=O)N[C@@H](Cc4c[nH]c5ccccc45)C(=O)O)ccc23)cc1 | inconclusive: 70.8 µM [inhibitor, single point] |
| COC(=O)c1cccc(-n2c(CCC(=O)O)ccc2-c2cccs2)c1 | inactive and active: 70.8 µM |
| CCOC(=O)Nc1ccc2c(c1)Nc1ccccc1S2 | active: 28.2 µM |
| Cc1ccc(S(=O)(=O)n2ccc3c2CCCC3=O)cc1 | inactive |
| O=C(CN1C(=O)c2cccnc2C1=O)c1ccccc1 | inconclusive: 89.1 µM [inhibitor, single point] |
| CSc1nc(-c2ccco2)nn1S(=O)(=O)c1ccccc1 | inconclusive: 89.1 µM [inhibitor, single point] |
| CCOC(=O)C(=CNc1ncccc1C)C(=O)OCC | inactive |
| CCN(CC)c1ccc(NC(=O)/C=C\c2ccccc2Cl)cc1 | inconclusive: 7.94 µM [inhibitor, full curve, poor fit] |
| COc1ccc(-c2csc(NC(=O)C3CCN(C(=O)c4ccc(F)cc4)CC3)n2)cc1OC | inconclusive: 39.8 µM [inhibitor, partial curve] |
| Cc1ccc(C2(O)C(=O)c3ccccc3C2=O)c(O)c1C | inactive |
| CC(Oc1ccccc1)C(=O)Nc1nnc2n1CCS2 (stereo unspecified) | active: 20 µM |
| O=C(NCc1ccco1)c1ccc(Br)s1 | inconclusive: 89.1 µM [inhibitor, single point] |
| CC(=O)N1CCc2nc3sc(C(=O)Nc4ccc(Cl)cc4F)c(N)c3c(C(F)(F)F)c2C1 | inactive |
| CN(C)S(=O)(=O)c1ccc(NC(=O)C2CC(=O)N(Cc3ccccc3Cl)C2)cc1 (stereo unspecified) | inactive |
| Cc1ccc2cc3cc(C(=O)NCc4ccco4)oc3nc2c1 | inconclusive: 100 µM [inhibitor, single point] |
| CC(=O)c1c(C)[nH]c(C(=O)OCC(=O)Nc2cccc(S(=O)(=O)N3CCCC3)c2)c1C | active: 56.2 µM |
| Cc1ccc(C(c2nnnn2Cc2cccs2)N2CCN(Cc3ccc4c(c3)OCO4)CC2)cc1 (stereo unspecified) | inconclusive: 39.8 µM [inhibitor, partial curve] |
| OCCCc1nc2n(n1)C(c1cccs1)C=C(c1ccccc1)N2 (stereo unspecified) | inactive |
| CCN(CC)P(=O)(Nc1ccc(SC(F)F)cc1)c1ccc(N(C)C)cc1NC(=O)c1ccco1 (stereo unspecified) | inconclusive: 10 µM [inhibitor, full curve] |

| SMILES | Potency |
| --- | --- |
| Cc1cccc(-c2cc(C(=O)NCCCn3ccnc3)c3ccccc3n2)c1 | inconclusive: 79.4 µM [inhibitor, single point] |
| CCC1CCCCN1CCCNC(=O)c1ccc2c(c1)N(Cc1ccc(F)cc1)C(=O)c1ccccc1S2=O (stereo unspecified) | inactive |
| CCN(CC)c1ccc(C=Nc2ccc(C)cc2C)c(O)c1 | inactive |
| COc1ccc(Cl)cc1NC(=O)N1CCN(c2ccccc2OC)CC1 | inactive |
| CCOc1ccccc1NC(=O)c1c(NC(=O)c2cccc(C)c2)sc2c1CCC2 | inactive |
| CN(C)c1oc(COc2ccc(F)cc2)nc1C#N | inconclusive: 79.4 µM [inhibitor, single point] |
| S=C(c1ccc(-c2ccccc2Cl)o1)N1CCOCC1 | active: 39.8 µM |
| COc1ccc(C2C(C(=O)c3ccco3)=C(O)C(=O)N2CCOCCO)cc1OC (stereo unspecified) | inconclusive: 89.1 µM [inhibitor, single point] |
| N#Cc1ccc(C(=O)Nc2ccc(S(=O)(=O)NC3=NCCCCC3)cc2)cc1 | inconclusive: 89.1 µM [inhibitor, single point] |
| CN(C)c1oc(-c2ccc(Cl)cc2)nc1S(=O)(=O)c1ccccc1 | inconclusive: 35.5 µM [inhibitor, partial curve] |
| CCOC(=O)c1c(C)nc(C(Cl)(Cl)Cl)nc1N | inconclusive: 79.4 µM [inhibitor, partial curve] |
| Cc1c(C(=O)O)sc2nc(CSc3nnc(-c4ccc(F)cc4)n3C)[nH]c(=O)c12 | inconclusive: 89.1 µM [inhibitor, single point] |
| S=C(NNc1ccnc2cc(Cl)ccc12)Nc1ccccc1Cl | inconclusive: 50.1 µM [inhibitor, partial curve, poor fit] |
| COc1ccc(S(=O)(=O)N2CCN(Cc3nc4ccc(C)cc4o3)CC2)cc1Cl | inactive |
| Cc1cc2ccccc2c(=O)n1CC(=O)NCC(=O)N1CCN(c2ccccc2F)CC1 | inconclusive: 89.1 µM [inhibitor, single point] |
| COc1ccc(C(=O)n2c(N)nc3ccccc32)cc1OC | inconclusive: 89.1 µM [inhibitor, single point] |
| Oc1ccc(Nc2nc(-c3ccccc3O)nc3ccccc23)cc1 | inconclusive: 50.1 µM [inhibitor, partial curve] |
| Cc1ccc(Cl)cc1N(C(=O)c1csnn1)C(C(=O)NC1CCCC1)c1ccco1 (stereo unspecified) | inactive |
| Cc1cc2cc(CN(CCN3CCOCC3)C(=O)Nc3ccccc3F)c(=O)[nH]c2cc1C | inactive |
| CCNC(=O)c1sc(=S)n(-c2ccc(C)cc2)c1N | inactive |
| COc1ccc(OCCCC(=O)NNC(=O)CCN2CCN(c3ccccc3)CC2)cc1 | inconclusive: 100 µM [inhibitor, single point] |
| COC(=O)c1ccc(C23CC4(C2)[C@H](CN(C)[C@@H]4c2ccccc2)C3c2ccccc2)cc1 (stereo partly specified) | inconclusive: 56.2 µM [inhibitor, partial curve] |
| C/C(=N\Nc1ccc(Cl)c(C(=O)O)c1)c1cccc([N+](=O)[O-])c1 | inactive |
| O=C(C1=C(O)C(=O)N(CCOCCO)C1c1cccs1)c1cccs1 (stereo unspecified) | inconclusive: 89.1 µM [inhibitor, single point] |

| SMILES | Potency |
| --- | --- |
| COc1ccc(NC(=O)CCCCn2c(=O)[nH]c3ccccc3c2=O)cc1 | inactive |
| COc1ccc2c(CCNC(=O)c3ccc([N+](=O)[O-])cc3)c[nH]c2c1 | inconclusive: 79.4 µM [inhibitor, single point] |
| O=C(O)c1ccc(N/N=C2/CCCc3ccccc32)cc1 | inconclusive: 79.4 µM [inhibitor, single point] |
| Cc1c(C(=O)Oc2cccc3cccnc23)cccc1[N+](=O)[O-] | active: 14.1 µM |
| CN1CCc2c(sc3c2C(=O)NC(c2cn(Cc4ccccc4)c4ccccc24)N3)C1 (stereo unspecified) | active: 44.7 µM |
| Cc1nn(-c2ccccc2)c(Cl)c1/C=C1\SC(=S)N(CCCCCC(=O)O)C1=O | inconclusive: 28.2 µM [inhibitor, partial curve] |
| CC(C)(C)C1=CC(=O)C(N2CCOCC2)=CC1=O | active: 50.1 µM |
| CCOC(=O)c1sc(NC(=O)c2ccncc2)c(C#N)c1C | inconclusive: 89.1 µM [inhibitor, single point] |
| Nc1ccc(N2CCN(c3ccc(F)cc3)CC2)cc1 | active: 35.5 µM |
| CC1=CC(C)C2(CO)COC(c3ccccc3O)C1C2C (stereo unspecified) | inconclusive: 3.98 µM [inhibitor, single point] |
| COc1ccc(N2CCN(Cc3nc4ccsc4c(=O)[nH]3)CC2)cc1 | inconclusive: 89.1 µM [inhibitor, single point] |
| CCOC(=O)NN1C(=O)c2ccccc2NC1c1ccccc1F (stereo unspecified) | inactive |
| O=C(c1cc(-c2ccncc2)nc2ccc(Cl)cc12)N1CCN(Cc2ccc3c(c2)OCO3)CC1 | active: 39.8 µM |
| O=C(CCN1C(=O)C2CCCCC2C1=O)N1CCN(S(=O)(=O)c2cccc(F)c2)CC1 (stereo unspecified) | inconclusive: 89.1 µM [inhibitor, single point] |
| O=C(c1ccc(S(=O)(=O)N2CCCCCC2)cc1)N1CCC(CN2C(=O)c3cccc4cccc(c34)C2=O)CC1 | inconclusive: 89.1 µM [inhibitor, single point] |
| CCCCCCCCNC(=S)NCCN1CCCCC1 | inconclusive: 79.4 µM [inhibitor, single point] |
| COc1cccc(C(=O)c2c(C)c(CCC#N)n3ccccc23)c1 | inconclusive: 79.4 µM [inhibitor, partial curve] |
| O=[N+]([O-])c1cccc(/C=N/Nc2nc(C(Cl)(Cl)Cl)nc3ccccc23)c1 | inconclusive: 89.1 µM [inhibitor, single point] |
| Cc1c(NC(=O)CN2CC(C)OC(C)C2)c(=O)n(-c2ccccc2)n1C (stereo unspecified) | active: 20 µM |
| COc1ccccc1-n1cnc2cc(NCc3cccs3)ccc21 | active: 44.7 µM |
| CCN(c1ccccc1)S(=O)(=O)c1ccc(C(C(=O)OC)C(=O)OC)c([N+](=O)[O-])c1 | inconclusive: 70.8 µM [inhibitor, single point] |
| COc1ccc(Nc2nc(N)c3cc(OC)c(OC)cc3n2)cc1 | inconclusive: 44.7 µM [inhibitor, partial curve] |
| Cc1[nH]c2ccccc2c1SCCNC(=O)c1ccc(S(=O)(=O)N2CCCC2)cc1 | inactive |
